{"source": "PubChem BioAssay AID624417", "about": "(National Center for Advancing Translational Sciences (NCATS), 2012)", "note": "The whole screen tested about 410,000 compounds, of which about 6,400 (1.6%) were called active. Inconclusive results, whose numbers are uncertain, are shown with a selection of clear calls. The call rests on the fitted dose curve; in most records, active means well fitted inhibition curve with a large enough effect; inconclusive means small, poorly fitted or top-dose-only effect; inactive means no such curve, though single readings can be large or run the other way. Potencies of inconclusive entries are left out as doubtful fits. On the % scale 0 is the no-effect control and ±100 the full control effect; potency means the concentration at half of the fitted maximal effect; tags describe the fitted curve by direction and shape."}
{"molecular_target": "Glucagon-like peptide 1 receptor (Homo sapiens) (UniProt P43220)", "sequence (P43220 whole entry, looked up)": "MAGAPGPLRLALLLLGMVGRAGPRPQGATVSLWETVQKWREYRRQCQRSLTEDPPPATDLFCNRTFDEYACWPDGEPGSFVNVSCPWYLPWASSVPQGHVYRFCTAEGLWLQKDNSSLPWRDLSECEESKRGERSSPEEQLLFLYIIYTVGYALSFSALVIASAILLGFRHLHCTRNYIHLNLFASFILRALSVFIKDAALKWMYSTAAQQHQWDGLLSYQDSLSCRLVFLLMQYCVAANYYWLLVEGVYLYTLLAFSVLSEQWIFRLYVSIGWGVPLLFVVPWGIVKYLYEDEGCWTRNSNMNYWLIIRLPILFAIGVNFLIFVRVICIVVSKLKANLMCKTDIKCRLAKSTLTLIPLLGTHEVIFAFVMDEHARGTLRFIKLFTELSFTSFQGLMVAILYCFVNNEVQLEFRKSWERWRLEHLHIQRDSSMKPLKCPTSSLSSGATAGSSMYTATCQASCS", "assay": "qHTS of GLP-1 Receptor Inverse Agonists (Inhibition Mode); further: nearly all actives have a fitted effect of over 55% in size", "details": "HEK293 GLP-1R CRE-luciferase, luminescence, 24 h, GLP-1R form is constitutively active; activity change, negative = inhibition: at 38.3 µM (top of the series) unless noted", "outline": "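HEK293 cells stably co-expressing constitutively active GLP-1R and a cAMP-responsive luciferase reporter were seeded in DMEM with 10% Nu serum, given compounds after 12 h, and incubated 24 h at 37 deg C. Luminescence was then read.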"}
{"compound": "COc1cccc(C(=O)O/N=C(\\N)c2ccccn2)c1", "Potency": "inconclusive [inhibitor, partial curve, poor fit]"}
{"compound": "O=C(CCN1C(=O)/C(=C/c2ccco2)SC1=S)Nc1ccc(O)cc1C(=O)O", "activity change, negative = inhibition": "inactive: 8.52%"}
{"compound": "CC(C)(C)OC(=O)CC1(C#N)c2ccccc2C(Br)=CN1C(=O)c1ccccc1", "note": "(configuration not stated)", "Potency": "inconclusive [inhibitor, partial curve, poor fit]"}
{"compound": "Cc1cccc(NC(=O)C(Cc2ccccc2)n2cccc2)c1C", "note": "(configuration not stated)", "Potency": "inconclusive [inhibitor, partial curve, poor fit]"}
{"compound": "CCOc1ccc(NC(=O)c2cc3c(s2)-c2ccccc2OC3)cc1", "Potency": "inconclusive [inhibitor, full curve, poor fit]"}
{"compound": "COc1ccc2cc3c(N)c(C(=O)NCc4ccco4)sc3nc2c1", "activity change, negative = inhibition": "inactive: 0%"}
{"compound": "CCc1ccc(N2CN(CCc3ccccc3)CNC2=S)cc1", "Potency": "inconclusive [inhibitor, single point]"}
{"compound": "O=C(c1ccccc1F)N1CCC2CC1c1cc(N3CCCCC3)ccc12", "note": "(configuration not stated)", "Potency": "inconclusive [inhibitor, partial curve, poor fit]"}
{"compound": "CS/C(=N\\S(=O)(=O)c1cccs1)Nc1cccc(Cl)c1C", "Potency": "inconclusive [inhibitor, single point]"}
{"compound": "CCCCN(C)C1CCN(C(=S)Nc2cccc(SC)c2)CC1", "Potency": "inconclusive [inhibitor, partial curve, poor fit]"}
{"compound": "CCS(=O)(=O)N1Cc2ccccc2CC1C(=O)Nc1nc2ccc(C)cc2s1", "note": "(configuration not stated)", "Potency": "inconclusive [inhibitor, single point]"}
{"compound": "Cc1ccc(CNC(=O)CCCN2C(=O)c3cccnc3Oc3ccc(Cl)cc32)cc1", "activity change, negative = inhibition": "inactive: -4.87%"}
{"compound": "CCCCOc1ccccc1C(=O)Nc1nonc1-c1ccccc1", "Potency": "inconclusive [inhibitor, single point]"}
{"compound": "CCN(CC(=O)Nc1ccccc1C(F)(F)F)C(=O)CSCc1ccc(C)cc1", "Potency": "inconclusive [inhibitor, partial curve, poor fit]"}
{"compound": "CC12CCC(C(=O)N(CCCCN3CCN(c4ccccn4)CC3)C1=O)C2(C)C", "note": "(configuration not stated)", "Potency": "inconclusive [inhibitor, partial curve, poor fit]"}
{"compound": "CCCCOC(=O)c1[nH]c2c(c1C)C(=O)CC(c1cc(OC)c(OC)c(OC)c1)C2", "note": "(configuration not stated)", "Potency": "inconclusive [inhibitor, full curve, poor fit]"}
{"compound": "COc1ccc(-c2noc(CCCC(=O)NC3CCCC3)n2)cc1", "Potency": "inconclusive [inhibitor, partial curve]"}
{"compound": "Cc1ccc(-n2c(SCC(=O)NCc3cccs3)nnc2-c2ccoc2C)cc1", "Potency": "inconclusive [inhibitor, partial curve, poor fit]"}
{"compound": "COCCNC(=O)C(=O)NCC(c1ccc2c(c1)OCO2)N1CCN(c2ccc(F)cc2)CC1", "note": "(configuration not stated)", "Potency": "inconclusive [inhibitor, partial curve, poor fit]"}
{"compound": "CCC(C(=O)c1ccc(O)cc1)c1ccccc1", "note": "(configuration not stated)", "Potency": "inconclusive [inhibitor, single point]"}
{"compound": "COc1ccc(NC(=O)c2ccc3c(=O)n(-c4ccc(OC)cc4OC)c(=S)[nH]c3c2)cc1", "Potency": "inconclusive [inhibitor, single point]"}
{"compound": "CCCOc1ccc2oc(=O)c3c(c2c1)CCCN3C(=O)CN(C)Cc1ccccc1", "Potency": "inconclusive [inhibitor, partial curve, poor fit]"}
{"compound": "Cc1ccc2ccccc2c1C(O)c1ncc(-c2ccccc2Cl)[nH]1", "note": "(configuration not stated)", "Potency": "inconclusive [inhibitor, single point]"}
{"compound": "CCn1ccc2cc(S(=O)(=O)N3CCCN(C(=O)Nc4ccc(C)c(F)c4)CC3)ccc21", "Potency": "inconclusive [inhibitor, single point]"}
{"compound": "Oc1ccc(Cl)cc1C=NCCc1ccccc1", "activity change, negative = inhibition": "inactive: 16.2%"}
{"compound": "CCN1CCN(Cc2ccc(NC(=O)Nc3ccccc3)cc2)CC1", "Potency": "inconclusive [inhibitor, partial curve, poor fit]"}
{"compound": "COc1ccc2oc(C)c(C(=O)c3ccc(C)cc3)c2c1", "Potency": "inconclusive [inhibitor, single point]"}
{"compound": "COc1cccc(OC(=O)c2ccccc2)c1OC(=O)c1ccccc1", "activity change, negative = inhibition": "inactive: 5.18%"}
{"compound": "CCn1c(=O)c2cc(C(=O)NCCCN(C)Cc3ccccc3)sc2c2ccccc21", "Potency": "inconclusive [inhibitor, partial curve]"}
{"compound": "CCN(Cc1ccccc1)C(c1ccncc1)c1nnnn1C(C)(C)C", "note": "(configuration not stated)", "activity change, negative = inhibition": "inactive: 0%"}
{"compound": "CCC1CCCCN1C(=O)Cn1c(=O)n(CCCCCC(=O)NCc2ccc(F)cc2)c(=O)c2sccc21", "note": "(configuration not stated)", "activity change, negative = inhibition": "inactive: -5.38%"}
{"compound": "Cc1cccc(C(=O)N2CCc3cc(-c4nc(NC(=O)CN5CCCC5)sc4C)ccc32)c1", "Potency": "inconclusive [inhibitor, partial curve, poor fit]"}
{"compound": "CCCOc1ccc(F)cc1-c1cc(C(=O)Nc2cc(OC)c(OC)c(OC)c2)[nH]n1", "Potency": "inconclusive [inhibitor, partial curve, poor fit]"}
{"compound": "CC1C/C(=N/Nc2nc3ccccc3[nH]2)CC(C)(C)C1", "note": "(configuration not stated)", "Potency": "inconclusive [inhibitor, single point]"}
{"compound": "O=[N+]([O-])c1ccc(N2CCN(c3ccc(O)cc3)CC2)c(Cl)c1", "Potency": "inconclusive [inhibitor, partial curve, poor fit]"}
{"compound": "CCn1c(-c2ccc(C(C)(C)C)cc2)n[nH]c1=S", "Potency": "inconclusive [inhibitor, single point]"}
{"compound": "O=C(NCc1ccccn1)c1ccccc1OCc1ccc(F)cc1", "Potency": "inconclusive [inhibitor, single point]"}
{"compound": "CCN(c1ccccc1)S(=O)(=O)c1ccc(C(=O)NC2CCN(Cc3ccccc3)CC2)cc1", "Potency": "inconclusive [inhibitor, partial curve, poor fit]"}
{"compound": "Oc1ccc2ccccc2c1C=NNc1ccccn1", "Potency": "inconclusive [inhibitor, full curve, poor fit]"}
{"compound": "FC(F)(F)c1cc(-c2cccs2)n[nH]1", "Potency": "inconclusive [inhibitor, full curve, poor fit]"}
{"compound": "CN(Cc1cccc(Cl)c1Cl)c1ccc(S(=O)(=O)N2CCCCC2)cc1[N+](=O)[O-]", "Potency": "inconclusive [inhibitor, partial curve, poor fit]"}
{"compound": "COc1ccc(C(=O)N2CCCC(c3cc(C(=O)NCc4ccc(F)cc4)no3)C2)cc1", "note": "(configuration not stated)", "activity change, negative = inhibition": "inactive: -5.74%"}
{"compound": "O=C(NCc1ccccc1Cl)c1ccc(CSCc2cccc(F)c2)o1", "Potency": "inconclusive [inhibitor, single point]"}
{"compound": "Oc1ccc(C=NNC(=S)Nc2ccccc2)nc1", "Potency": "inconclusive [inhibitor, single point]"}
{"compound": "COC(=O)c1cc2c(ccn2-c2ccc(F)cc2)n1Cc1ccc(C#N)cc1", "Potency": "inconclusive [inhibitor, partial curve]"}
{"compound": "CCCCN(C(=O)c1cccs1)C1CCS(=O)(=O)C1", "note": "(configuration not stated)", "activity change, negative = inhibition": "inactive: -8.74%"}
{"compound": "O=[N+]([O-])c1ccc(N/N=C/c2sc(N3CCOCC3)nc2-c2ccccc2)c(S(=O)(=O)Nc2ccc(Cl)cc2)c1", "Potency": "inconclusive [inhibitor, partial curve, poor fit]"}
{"compound": "CCCC(C(=O)NCCC(C)C)N(Cc1ccccc1Cl)C(=O)c1snc(C(N)=O)c1N", "note": "(configuration not stated)", "Potency": "inconclusive [inhibitor, single point]"}
{"compound": "COc1ccc(-c2cc(C(F)(F)F)n3nc(C(=O)Nc4cccc(C(F)(F)F)c4)c(Br)c3n2)cc1", "activity change, negative = inhibition": "inactive: 2.4%"}
{"compound": "COc1ccc(C(=O)NCCSc2ccccc2)cc1", "Potency": "inconclusive [inhibitor, single point]"}
{"compound": "CCOC(=O)c1sc2ccccc2c1S(=O)(=O)NCc1ccc(F)cc1", "Potency": "inconclusive [inhibitor, partial curve]"}
{"compound": "COc1ccccc1OCc1ccc(C(=O)c2ccccc2)cc1", "Potency": "inconclusive [inhibitor, single point]"}
{"compound": "CCCn1cc(CN2CCC(Cc3ccccc3)(C(=O)OCC)CC2)c(C)n1", "Potency": "inconclusive [inhibitor, single point]"}
{"compound": "CCCCn1nnc(NC(=O)c2ccc(-c3cccc(Cl)c3)o2)n1", "Potency": "inconclusive [inhibitor, single point]"}
{"compound": "Cc1occc1C(=O)N/N=C/c1ccc(OCc2ccccc2)cc1", "Potency": "inconclusive [inhibitor, partial curve, poor fit]"}
{"compound": "Cc1ccccc1[C@@]1(C)ON(c2ccccc2C(F)(F)F)C1=O", "Potency": "active: 11.2 µM"}
{"compound": "COc1cc(C2Nc3ccccc3C(=O)N2c2ccc3c(c2)OCCO3)ccc1OCC(C)C", "note": "(configuration not stated)", "Potency": "inconclusive [inhibitor, partial curve, poor fit]"}
{"compound": "N/C(=N\\OC(=O)CCCOc1ccc(Cl)cc1Cl)c1ccncc1", "Potency": "inconclusive [inhibitor, single point]"}
{"compound": "O=C(c1ccccn1)C1CCCN(Cc2nc(Cc3cccc(F)c3)no2)C1", "note": "(configuration not stated)", "Potency": "inconclusive [inhibitor, single point]"}
{"compound": "CCN(c1ccccc1)S(=O)(=O)c1ccc(OC)c(NC(=O)Cc2ccc(F)cc2)c1", "Potency": "inconclusive [inhibitor, partial curve, poor fit]"}
{"compound": "CCN(CC(=O)NC(C)(C)C)C(=O)CN1c2cccc3cccc(c23)S1(=O)=O", "Potency": "inconclusive [inhibitor, single point]"}
{"compound": "Cc1onc(-c2ccccc2Cl)c1C(=O)Nc1ccc(S(=O)(=O)N2CCCC2)cc1", "Potency": "inconclusive [inhibitor, single point]"}
